Results published in the supplement of paper PMC8728848.
The list shows a part of the results.

Columns and labels:
Experiment in all cases: glycan array binding signal (z-score within array); higher = stronger binding
Conditions in all cases: glycan notation: IUPAC condensed, linker removed
[1] = target: GlcNAc(b1-3)Gal(b1-4)GlcNAc(b1-3)Gal(b1-4)GlcNAc(b1-3)GalNAc
In short: (§1)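 The Consortium for Functional Glycomics database supplied 3228 glycan arrays, of which those lacking an available protein sequence were dropped. The binding signal, a within-array Z-score, was averaged across arrays of the same protein sequence and across linkers. Negative scores can be read as non-binding.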

[2] = target: GlcNAc(b1-3)Gal(b1-4)GlcNAc(b1-3)GalNAc
In short: as §1

[3] = target: GlcNAc(b1-3)Gal(b1-4)GlcNAc(b1-3)[GlcNAc(b1-3)Gal(b1-4)GlcNAc(b1-3)]GalNAc
In short: as §1

[4] = target: GlcNAc(b1-3)Gal(b1-4)GlcNAc(b1-6)[Gal(b1-3)]GalNAc
In short: as §1

[5] = target: GlcNAc(b1-3)Gal(b1-4)GlcNAc(b1-6)[GlcNAc(b1-3)Gal(b1-3)]GalNAc
In short: as §1

[6] = target: GlcNAc(b1-3)Gal(b1-4)GlcNAc(b1-6)[GlcNAc(b1-3)]Gal(b1-4)GlcNAc
In short: as §1

GlcNAc(b1-3)GalNAc = target: GlcNAc(b1-3)GalNAc
In short: as §1

GlcNAc(b1-3)Man = target: GlcNAc(b1-3)Man
In short: as §1

[7] = target: GlcNAc(b1-3)[GlcNAc(b1-4)][GlcNAc(b1-6)]GlcNAc
In short: as §1

[8] = target: GlcNAc(b1-3)[GlcNAc(b1-6)]Gal(b1-4)GlcNAc
In short: as §1

[9] = target: GlcNAc(b1-3)[GlcNAc(b1-6)]GalNAc
In short: as §1

[10] = target: GlcNAc(b1-4)Gal(b1-4)GlcNAc
In short: as §1

GlcNAc(b1-4)GlcNAc = target: GlcNAc(b1-4)GlcNAc
In short: as §1

[11] = target: GlcNAc(b1-4)GlcNAc(b1-4)GlcNAc
In short: as §1

[12] = target: GlcNAc(b1-4)GlcNAc(b1-4)GlcNAc(b1-4)GlcNAc(b1-4)GlcNAc
In short: as §1

[13] = target: GlcNAc(b1-4)GlcNAc(b1-4)GlcNAc(b1-4)GlcNAc(b1-4)GlcNAc(b1-4)GlcNAc
In short: as §1

[14] = target: GlcNAc(b1-4)[GlcNAc(b1-6)]GalNAc
In short: as §1

[15] = target: GlcNAc(b1-6)Gal(b1-4)GlcNAc
In short: as §1

GlcNAc(b1-6)GalNAc = target: GlcNAc(b1-6)GalNAc
In short: as §1

[16] = target: GlcNAc6S(b1-3)Gal(b1-4)GlcNAc
In short: as §1

Kdn(a2-3)Gal(b1-3)GalNAc = target: Kdn(a2-3)Gal(b1-3)GalNAc
In short: as §1

Kdn(a2-3)Gal(b1-3)GlcNAc = target: Kdn(a2-3)Gal(b1-3)GlcNAc
In short: as §1

Kdn(a2-3)Gal(b1-4)Glc = target: Kdn(a2-3)Gal(b1-4)Glc
In short: as §1

Kdn(a2-3)Gal(b1-4)GlcNAc = target: Kdn(a2-3)Gal(b1-4)GlcNAc
In short: as §1

[17] = target: Kdn(a2-3)Gal(b1-4)[Fuc(a1-3)]GlcNAc
In short: as §1

Kdn(a2-6)Gal(b1-4)GlcNAc = target: Kdn(a2-6)Gal(b1-4)GlcNAc
In short: as §1

[18] = target: Man(a1-2)Man(a1-2)Man(a1-3)Man
In short: as §1

[19] = target: Man(a1-2)Man(a1-2)Man(a1-6)[Man(a1-3)]Man
In short: as §1

Man(a1-2)Man(a1-3)Man = target: Man(a1-2)Man(a1-3)Man
In short: as §1

[20] = target: Man(a1-2)Man(a1-3)[Man(a1-2)Man(a1-6)]Man
In short: as §1

[21] = target: Man(a1-2)Man(a1-3)[Man(a1-2)Man(a1-6)]Man(a1-6)[Man(a1-2)Man(a1-2)Man(a1-3)]Man
In short: as §1

[22] = target: Man(a1-2)Man(a1-3)[Man(a1-2)Man(a1-6)]Man(a1-6)[Man(a1-2)Man(a1-2)Man(a1-3)]Man(b1-4)GlcNAc(b1-4)GlcNAc
In short: as §1

[23] = target: Man(a1-2)Man(a1-3)[Man(a1-6)]Man(a1-6)[Man(a1-2)Man(a1-3)]Man(b1-4)GlcNAc(b1-4)GlcNAc
In short: as §1

[24] = target: Man(a1-2)Man(a1-6)[Man(a1-3)]Man(a1-6)[Man(a1-2)Man(a1-2)Man(a1-3)]Man
In short: as §1

[25] = target: Man(a1-2)Man(a1-6)[Man(a1-3)]Man(a1-6)[Man(a1-2)Man(a1-2)Man(a1-3)]Man(b1-4)GlcNAc(b1-4)GlcNAc
In short: as §1

Man(a1-3)[Man(a1-6)]Man = target: Man(a1-3)[Man(a1-6)]Man
In short: as §1

[26] = target: Man(a1-3)[Man(a1-6)]Man(a1-6)[Man(a1-2)Man(a1-3)]Man(b1-4)GlcNAc(b1-4)GlcNAc
In short: as §1

[27] = target: Man(a1-3)[Man(a1-6)]Man(a1-6)[Man(a1-3)]Man
In short: as §1

[28] = target: Man(a1-3)[Man(a1-6)]Man(a1-6)[Man(a1-3)]Man(b1-4)GlcNAc(b1-4)GlcNAc
In short: as §1

[29] = target: Man(a1-3)[Man(a1-6)]Man(b1-4)GlcNAc(b1-4)GlcNAc
In short: as §1

[30] = target: Man(a1-3)[Man(a1-6)]Man(b1-4)GlcNAc(b1-4)[Fuc(a1-6)]GlcNAc
In short: as §1

Man(a1-6)Man = target: Man(a1-6)Man
In short: as §1

Man(b1-4)GlcNAc = target: Man(b1-4)GlcNAc
In short: as §1

MurNAc(b1-4)GlcNAc = target: MurNAc(b1-4)GlcNAc
In short: as §1

Neu5Ac(a2-3)Gal = target: Neu5Ac(a2-3)Gal
In short: as §1

B1: diCBM40 CPF071 (Clostridium perfringens) (protein)
chain: MAHHHHHHVGTGSNDDDDKSPDPMLSSLGEYKDINLESSNASNITYDLEKYKNLDEGTIVVRFNSKDSKIQSLLGISNSKTKNGYFNFYVTNSRVGFELRNQKNEGNTQNGTENLVHMYKDVALNDGDNTVALKIEKNKGYKLFLNGKMIKEVKDTNTKFLNNIENLDSAFIGKTNRYGQSNEYNFKGNIGFMNIYNEPLGDDYLLSKTGETKALNGSELGSGSGLSSLGEYKDINLESSNASNITYDLEKYKNLDEGTIVVRFNSKDSKIQSLLGISNSKTKNGYFNFYVTNSRVGFELRNQKNEGNTQNGTENLVHMYKDVALNDGDNTVALKIEKNKGYKLFLNGKMIKEVKDTNTKFLNNIENLDSAFIGKTNRYGQSNEYNFKGNIGFMNIYNEPLGDDYLLSKTGETK
glycan array binding signal (z-score) [1]: -0.185
glycan array binding signal (z-score) [2]: -0.263
glycan array binding signal (z-score) [3]: -0.251
glycan array binding signal (z-score) [4]: -0.254
glycan array binding signal (z-score) [5]: -0.315
glycan array binding signal (z-score) [6]: -0.256
glycan array binding signal (z-score) (GlcNAc(b1-3)GalNAc): -0.275
glycan array binding signal (z-score) (GlcNAc(b1-3)Man): -0.296
glycan array binding signal (z-score) [7]: -0.235
glycan array binding signal (z-score) [8]: -0.212
glycan array binding signal (z-score) [9]: -0.226
glycan array binding signal (z-score) [10]: -0.297
glycan array binding signal (z-score) (GlcNAc(b1-4)GlcNAc): 1.48
glycan array binding signal (z-score) [11]: -0.226
glycan array binding signal (z-score) [12]: -0.223
glycan array binding signal (z-score) [13]: -0.321
glycan array binding signal (z-score) [14]: -0.37
glycan array binding signal (z-score) [15]: -0.294
glycan array binding signal (z-score) (GlcNAc(b1-6)GalNAc): -0.279
glycan array binding signal (z-score) [16]: -0.328
glycan array binding signal (z-score) (Kdn(a2-3)Gal(b1-3)GalNAc): -0.262
glycan array binding signal (z-score) (Kdn(a2-3)Gal(b1-3)GlcNAc): -0.291
glycan array binding signal (z-score) (Kdn(a2-3)Gal(b1-4)Glc): -0.094
glycan array binding signal (z-score) (Kdn(a2-3)Gal(b1-4)GlcNAc): -0.193
glycan array binding signal (z-score) [17]: -0.293
glycan array binding signal (z-score) (Kdn(a2-6)Gal(b1-4)GlcNAc): -0.286
glycan array binding signal (z-score) [18]: -0.337
glycan array binding signal (z-score) [19]: -0.285
glycan array binding signal (z-score) (Man(a1-2)Man(a1-3)Man): -0.203
glycan array binding signal (z-score) [20]: -0.321
glycan array binding signal (z-score) [21]: -0.292
glycan array binding signal (z-score) [22]: -0.293
glycan array binding signal (z-score) [23]: -0.083
glycan array binding signal (z-score) [24]: -0.188
glycan array binding signal (z-score) [25]: -0.217
glycan array binding signal (z-score) (Man(a1-3)[Man(a1-6)]Man): -0.344
glycan array binding signal (z-score) [26]: -0.227
glycan array binding signal (z-score) [27]: -0.322
glycan array binding signal (z-score) [28]: -0.245
glycan array binding signal (z-score) [29]: -0.321
glycan array binding signal (z-score) [30]: -0.312
glycan array binding signal (z-score) (Man(a1-6)Man): -0.274
glycan array binding signal (z-score) (Man(b1-4)GlcNAc): -0.241
glycan array binding signal (z-score) (MurNAc(b1-4)GlcNAc): -0.264
glycan array binding signal (z-score) (Neu5Ac(a2-3)Gal): 2.38
